Measured values from PubChem BioAssay AID1645887 (National Center for Advancing Translational Sciences (NCATS), 2021).
“And” between values parts separate entries of the source, which are not always exact repeats. Equal entries are not always repeated. Out of some 16,000 compounds screened, about 40 (0.2%) were called active. Another 1% or so got no clear call; they are omitted. Calls follow the shape of the dose curve; as a rule, active = well fitted activation curve with a large enough effect; inconclusive = small, poorly fitted or top-dose-only effect, or another doubt; inactive = no such curve, though single readings can be large or run the other way. The list shows a part of the results.

target: Rap guanine nucleotide exchange factor 4 (Homo sapiens) (UniProt Q8WZA2); test: Validation qHTS for agonist of cAMP-regulated guanine nucleotide exchange factor 4 (EPAC2); details: EPAC2 Rap1B BODIPY-GDP exchange, fluorescence; activation: active compounds read high;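 also: exchange makes BODIPY-GDP fluorescence drop when released from Rap1B; series mostly up to about 150 µM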
UniProt Q8WZA2, sequence (Q8WZA2 whole entry, looked up): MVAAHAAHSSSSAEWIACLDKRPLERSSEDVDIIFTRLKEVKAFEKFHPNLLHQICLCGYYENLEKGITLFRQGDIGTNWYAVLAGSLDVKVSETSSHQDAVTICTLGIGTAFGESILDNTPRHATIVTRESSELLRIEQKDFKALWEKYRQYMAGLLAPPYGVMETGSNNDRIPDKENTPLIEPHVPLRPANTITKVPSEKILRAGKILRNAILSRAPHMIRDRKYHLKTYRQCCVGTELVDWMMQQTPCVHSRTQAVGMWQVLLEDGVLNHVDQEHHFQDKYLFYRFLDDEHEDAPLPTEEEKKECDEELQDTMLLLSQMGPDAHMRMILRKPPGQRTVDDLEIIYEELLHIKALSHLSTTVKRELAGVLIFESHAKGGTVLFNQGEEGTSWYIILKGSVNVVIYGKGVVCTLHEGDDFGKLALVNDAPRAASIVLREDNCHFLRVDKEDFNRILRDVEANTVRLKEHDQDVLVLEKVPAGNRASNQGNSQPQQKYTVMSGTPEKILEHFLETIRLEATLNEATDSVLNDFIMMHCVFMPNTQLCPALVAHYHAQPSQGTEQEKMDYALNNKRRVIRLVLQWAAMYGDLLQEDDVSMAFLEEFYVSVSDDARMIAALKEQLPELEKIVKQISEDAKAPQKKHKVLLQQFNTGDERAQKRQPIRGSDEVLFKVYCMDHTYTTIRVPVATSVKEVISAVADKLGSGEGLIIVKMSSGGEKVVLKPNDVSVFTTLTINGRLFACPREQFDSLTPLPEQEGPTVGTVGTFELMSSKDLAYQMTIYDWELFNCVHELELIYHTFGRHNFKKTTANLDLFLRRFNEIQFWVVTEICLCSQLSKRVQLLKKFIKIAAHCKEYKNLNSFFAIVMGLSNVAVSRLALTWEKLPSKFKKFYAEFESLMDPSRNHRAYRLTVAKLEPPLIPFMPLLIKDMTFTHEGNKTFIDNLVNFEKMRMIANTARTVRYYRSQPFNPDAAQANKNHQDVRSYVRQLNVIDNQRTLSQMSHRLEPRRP
Summary of the method: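 Signal normalized against 6.5 mM cAMP as agonist control. Mix of EPAC2 (100 nM), RAP1B-BODIPY-GDP (250 nM) and GDP (50 uM) was read kinetically at 480/540 nm, every 5 min over 30 min, after 5 min room-temperature incubation with compound.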
% is scaled to controls: 0 for no effect and ±100 for the full control effect.

activation, inactive:
CN(C)CCCSc1ccccc1NC(=O)/C=C/c1ccccc1 -12.7%
COc1ccc(Oc2ncc3nc(-c4ccccc4)c(=O)n(CCC#N)c3n2)cc1 -0.503%
NC(C(=O)O)c1cccc(O)c1 (stereo unspecified) 11.5%
COc1cccc(C(=O)N(Cc2cc3cc4c(cc3nc2N(C)C)OCO4)CC2CCCO2)c1 (stereo unspecified) 2.19%
N[C@H](C(=O)O)[C@H](O)C(=O)O -3.76% and 1.62% and -3.27%
COc1ccccc1N1CCN(c2nc(CNC(=O)c3sc(C)nc3C)nc3ccccc23)CC1 -3.75%
CC(C)C[C@H](NC(=O)[C@@H](O)[C@H](N)Cc1ccccc1)C(=O)O -2.24% and 1.65% and -13.1%
Cc1cc(C(=O)N2CCOc3ccc(CN4CCC(Oc5cccnc5)CC4)cc3C2)c(C)o1 -13.2%
O=C(O)CN(CCOCCOCCN(CC(=O)O)CC(=O)O)CC(=O)O 6.68% and -10.1%
COc1cc([C@@H]2c3cc4c(cc3[C@H](O)[C@H]3COC(=O)[C@H]23)OCO4)cc(OC)c1OC -3.72% and -12% and -7.05%
O=P(O)(O)C(O)(Cc1cnc2ccccn12)P(=O)(O)O -12.9%
Cc1ccc(S(=O)(=O)NC(=O)NC2CCCCCCC2)cc1 6.91%
O=C1CCCCN1CCC(=O)N1CCOc2ccc(C(O)C3CCCCC3)cc2C1 (stereo unspecified) -12.1%
COC(=O)[C@H]1[C@H]2C[C@@H]3c4[nH]c5cc(OC)ccc5c4CCN3C[C@H]2C[C@@H](OC(=O)c2cc(OC)c(OC)c(OC)c2)[C@@H]1OC -8.15% and -48.6%
COc1cc2c(cc1OC)-c1cc3ccc(OC)c(OC)c3c[n+]1CC2 1.26%
COc1cccc(-c2ccc3ncnc(NC4CC4)c3c2)c1 -13.4%
COc1ccc(C2c3cc(OC)c(OC)cc3Cc3c4cc(OC)c(OC)cc4cc[n+]32)cc1OC (stereo unspecified) 0.293%
COc1ccccc1CNc1ncnc2ccc(-c3ccccc3CN(C)C)cc12 -6.07%
Cc1ncc2c(c1CNS(=O)(=O)N(C)C)CCN(C(=O)c1c(F)cccc1F)C2 -10.7%
Nc1c2c(nc3c1CCC3)CCCC2 -0.847%
CCOC(=O)Nc1ccc2c(c1)N(C(=O)CCN1CCOCC1)c1ccccc1S2 -6.22%
CC(NC(=O)C1CCOCC1)c1nnc2n1CCN(Cc1cc3c(cc1Cl)OCO3)CC2 (stereo unspecified) -1.84%
O=C1[C@H](Cc2ccccc2)NCCCC[C@@H](c2ccc(Cl)cc2)N1Cc1ccccc1 -33.3%
O=c1c(-c2ccc(O)cc2)coc2cc(O)cc(O)c12 -38.3% and -15.3% and -23.9%
COCCn1c(=O)c(C)nc2cnc(OC)nc21 -6.26%
O=c1cc(-c2cccc(O)c2O)oc2ccccc12 1.22%
Cc1cn(C2CC(N=[N+]=[N-])C(CO)O2)c(=O)[nH]c1=O (stereo unspecified) -9.96%
N[C@H](Cc1ccccc1)C(=O)O -8.69%
N=C(N)n1cccn1 -2.46%
O=C(c1ccco1)N1CCC2(CCCN(Cc3ccccc3)C2)CC1 0.192%
NCCO 14.1%
Cc1ccc2c(CC(=O)N3CCOc4ccc(CN5C[C@@H](C)O[C@@H](C)C5)cc4C3)cc(=O)oc2c1 -1.78%
COc1cccc(C2(CC(=O)N3CCCOc4c(cccc4OC)C3)CC(=O)N(C)C2=O)c1 (stereo unspecified) -1.55%
O=S1(=O)CCOCCCN1Cc1cccc(Cl)c1 -19.7%
O=C1C=CC(=C(c2ccc(O)cc2)c2ccc(O)cc2)C=C1 12.8%
O=C(NCCN1Cc2ccccc2OC(c2ccsc2)C1)c1cncs1 (stereo unspecified) -9.93%
COC(=O)[C@@H]1C[C@@H](NC(=O)c2ccc(C(F)(F)F)cc2)CN1Cc1cccc(O)c1 -2.93%
CC(O)(COc1ccccc1)c1ccc2c(c1)CN(Cc1cccnc1)CCO2 (stereo unspecified) -12.7%
CCCCCCN(CCCCCC)C(=O)Cc1c(-c2ccc(F)cc2)[nH]c2ccccc12 4.82% and 12.7% and 15.6%
CCN(CC)CCNC(=O)c1ccc(NC(C)=O)cc1 -8.77% and -17%
Cc1noc(C)c1C(=O)N1CCC2(CCCN(Cc3nccs3)C2)CC1 -19%
N[C@@H](Cc1cnc[nH]1)C(=O)O -17.5% and -3.93%
Cc1cc(=O)c2c(O)c3c(O)cc(O)c4c5c(O)cc(O)c6c(O)c7c(=O)cc(C)c8c1c2c(c34)c(c65)c78 -2.22%
CN(C)c1ccc(C=O)cc1Cl -30.9%
Cc1c(C(=O)NCC(C)C)sc2ncnc(NCC3CCCO3)c12 (stereo unspecified) -2.12%
CO[C@H]1[C@H](NC(=O)c2ccncc2)c2ccccc2C12CCN(C(=O)c1ccoc1)CC2 -8.58%
CCC(=O)NS(=O)(=O)c1ccc(-c2c(-c3ccccc3)noc2C)cc1 -11.3%
COc1ccccc1C1CN(Cc2cccc(C)n2)Cc2ccccc2O1 (stereo unspecified) 5.88%
CC(=O)NCCNC(=O)c1cnn(-c2nccc(-c3cc(C)sc3C)n2)c1C -6.72%
CNC[C@H](O)c1cccc(O)c1 -33% and -17.1%
Cc1c(C(=O)NCCc2ccccn2)cnn1-c1nccc(-c2cccs2)n1 -17%
N=C(N)SCCc1cnc[nH]1 -18.2% and 9.87% and -3.01%
c1csc(CNc2ccnc(-c3ccoc3)n2)c1 -9.92%
CCCCCCCCCCCCN1[C@@H](CC(=O)OC)c2cc(F)ccc2S1(=O)=O -5.82%
C[C@]12CCC(=O)C=C1CC[C@H]1[C@@H]3CC[C@](O)(C(=O)CO)[C@@]3(C)C[C@H](O)[C@@]12F -0.956% and -3.33%
CSc1nc(N)c2ncn([C@H]3O[C@H](COP(=O)(O)OP(=O)(O)O)[C@@H](O)[C@@H]3O)c2n1 -0.485%
COc1cc(=O)n2c(c1C(=O)NC(C)c1ccco1)CCN(C(=O)c1cn3ccc(C)cc3n1)CC2 (stereo unspecified) -14.8%
COc1cccc(-c2ccc3ncnc(N4CCN(C)CC4)c3c2)c1 -0.97%
CCNc1ncc2nc(-c3ccc(OC)cc3)c(=O)n(C)c2n1 -0.156%
O=c1c(CCc2ccccc2)nc2cnc(N3CCOCC3)nc2n1C1CC1 -1.97%
CC(C)NC(=O)N1CCCC2(CCN(C(=O)c3ccco3)CC2)C1 -15.8%
CC(=O)NNC(=O)N1Cc2ccccc2Oc2ccc(Cl)cc21 -16.1% and -56.7%
COc1ccc(C(=O)N(O)c2ccccc2)cc1 -12%
COc1cccc(Cn2c(=O)c(-c3cc(F)cc(F)c3)nc3cnc(N4CCOCC4)nc32)c1 -2.68%
COc1cccc(-c2nc(NCc3ccccc3OC)c3ccccc3n2)c1 20.1%
O=C(O)C1CCC[C@@H]2[C@@H]3CC(CN12)[C@@H]1CCCCN1C3 (stereo partly specified) -12.9%
O=C([C@@H]1C[C@@H](Sc2nc3ccccc3[nH]2)CN1CC1CCCCC1)N1CCOCC1 -18.2%
COc1ccc(NC(=O)N2CC[C@@]3(CCCN(S(C)(=O)=O)C3)C2)cc1 -25.7%
CCCCC[C@H](O)/C=C/[C@H]1C=CC(=O)[C@@H]1C/C=C\CCCC(=O)O 5.31%
CC(C)(CO)[C@@H](O)C(=O)NCCCO 9.04% and 8.2%
COc1ccc(NC(=O)N2CC[C@@]3(CCCN(C(C)=O)C3)C2)cc1 -4.5%
O=C(c1cc(C(F)(F)F)cc(C(F)(F)F)c1)N1CCC[C@@]2(CCN(c3ccccc3)C2)C1 -29.1%
C=C(C)C1CC[C@]2(CO)CC[C@@]3(C)[C@H](CCC4[C@@]5(C)CCC(O)C(C)(C)C5CC[C@@]43C)C12 (stereo partly specified) -3.24%
CCOC(=O)[C@H](CCc1ccccc1)N[C@@H](C)C(=O)N1[C@H](C(=O)O)C[C@H]2CCCC[C@@H]21 2.41% and -5.79% and -10.4%
CCNc1ncc2nc(-c3cccs3)c(=O)n(C[C@H]3CCCO3)c2n1 -6.53%
CC[C@H]1CN2CCc3cc(OC)c(OC)cc3[C@@H]2C[C@@H]1C[C@H]1NCCc2cc(OC)c(OC)cc21 -29.3%
COc1cccc(-c2nc3cc(SC)ccc3cc2CN(C(=O)c2sccc2C)C2CC2)c1 -13.1%
FC(F)(F)c1cc(CN2CCCC3(CCNCC3)C2)cc(C(F)(F)F)c1 -39.3%
COc1cccc(-c2nc(NCc3cccnc3)c3ccccc3n2)c1 9.12%
Cc1ccc(-c2ccnc(-n3ncc(C(=O)NC[C@@H]4CCCN5CCCC[C@H]45)c3C3CC3)n2)o1 2.11%
CCc1cc(C(=O)NCCN2Cc3ccccc3OC(c3ccsc3)C2)n(C)n1 (stereo unspecified) -3.25%
